Test results published in the supplement of paper PMC4967469.

Compound: FC(F)c1nc2ccccc2n1-c1nc(N2CCOCC2)nc(N2CCOCC2)n1 [ZSTK474]
Experiment: Viability of human cancer cell lines after 72 h of drug (GDSC screen)
Experimental: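 Human cancer cell lines in 384-well plates, medium with 10% serum, drug for 72 h over a 256-fold dose range (nine 2-fold or five 4-fold steps up to the top dose). Adherent lines were fixed and stained with the nucleic acid dye Syto60, suspension lines read with resazurin; signal relative to control wells, capped at 0 and 100%. One two-parameter sigmoid per drug and line, fitted in a mixed model over all curves with the slope shared within a line.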

Cell Line | AUC | IC50 [nM]
RMG-I (ovary, adherent, top dose 5.12 µM) | 0.599 | 627
RO82-W-1 (thyroid, adherent, top dose 5.12 µM) | 0.959 | > 5120
ROS-50 (B-cell leukaemia, suspension, top dose 5.12 µM) | 0.844 | > 5120
RPMI-2650 (head and neck, adherent, top dose 5.12 µM) | 0.819 | 3220
RPMI-6666 (Hodgkin lymphoma, suspension, top dose 5.12 µM) | 0.239 | 47.3
RPMI-7951 (melanoma, adherent, top dose 5.12 µM) | 0.662 | 887
RPMI-8226 (myeloma, suspension, top dose 5.12 µM) | 0.716 | 1190
RPMI-8402 (T-cell lymphoblastic leukaemia, suspension, top dose 5.12 µM) | 0.161 | 37.6
RPMI-8866 (chronic myeloid leukaemia, suspension, top dose 5.12 µM) | 0.866 | 4030
RS4-11 (leukaemia, suspension, top dose 5.12 µM) | 0.283 | 83.1
RT4 (bladder, adherent, top dose 5.12 µM) | 0.816 | 3020
RT-112 (bladder, adherent, top dose 5.12 µM) | 0.704 | 1270
RVH-421 (melanoma, adherent, top dose 5.12 µM) | 0.661 | 1060
RXF393 (kidney, adherent, top dose 5.12 µM) | 0.723 | 1790
Raji (Burkitt lymphoma, suspension, top dose 5.12 µM) | 0.935 | > 5120
Ramos-2G6-4C10 (Burkitt lymphoma, suspension, top dose 5.12 µM) | 0.582 | 519
SAS (head and neck, adherent, top dose 5.12 µM) | 0.815 | 3220
SAT (head and neck, adherent, top dose 5.12 µM) | 0.749 | 2530
SBC-1 (small cell lung carcinoma, suspension, top dose 5.12 µM) | 0.92 | > 5120
SBC-3 (small cell lung carcinoma, adherent, top dose 5.12 µM) | 0.595 | 567

Cell Line | AUC | IC50 [nM]
SBC-5 (small cell lung carcinoma, adherent, top dose 5.12 µM) | 0.983 | > 5120
SCC90 (head and neck, adherent, top dose 5.12 µM) | 0.64 | 923
SCC-3 (B-cell lymphoma, suspension, top dose 5.12 µM) | 0.942 | 4740
SCC-4 (head and neck, adherent, top dose 5.12 µM) | 0.909 | > 5120
SCC-9 (head and neck, adherent, top dose 5.12 µM) | 0.47 | 258
SCC-15 (head and neck, adherent, top dose 5.12 µM) | 0.702 | 1450
SCC-25 (head and neck, adherent, top dose 5.12 µM) | 0.652 | 899
SCH (stomach, adherent, top dose 5.12 µM) | 0.969 | > 5120
SF126 (glioma, adherent, top dose 5.12 µM) | 0.84 | 3790
SF268 (glioma, adherent, top dose 5.12 µM) | 0.889 | > 5120
SF295 (glioma, adherent, top dose 5.12 µM) | 0.763 | 1980
SF539 (glioma, adherent, top dose 5.12 µM) | 0.882 | 4490
SH-4 (melanoma, adherent, top dose 5.12 µM) | 0.828 | > 5120
SHP-77 (small cell lung carcinoma, semi-adherent, top dose 5.12 µM) | 0.969 | > 5120
SIG-M5 (acute myeloid leukaemia, suspension, top dose 5.12 µM) | 0.053 | < 20
SIMA (neuroblastoma, adherent, top dose 5.12 µM) | 0.912 | > 5120
SISO (cervix, adherent, top dose 5.12 µM) | 0.858 | 3930
SJRH30 (rhabdomyosarcoma, adherent, top dose 5.12 µM) | 0.809 | 2770
SJSA-1 (bone, adherent, top dose 5.12 µM) | 0.842 | 4310
SK-CO-1 (large intestine, adherent, top dose 5.12 µM) | 0.989 | > 5120

Cell Line | AUC | IC50 [nM]
SK-ES-1 (Ewing sarcoma, semi-adherent, top dose 5.12 µM) | 0.69 | 1140
SK-GT-4 (oesophagus, adherent, top dose 5.12 µM) | 0.689 | 1250
SK-HEP-1 (liver, adherent, top dose 5.12 µM) | 0.989 | > 5120
SK-LMS-1 (soft tissue, adherent, top dose 5.12 µM) | 0.537 | 402
SK-LU-1 (lung adenocarcinoma, adherent, top dose 5.12 µM) | 0.83 | 4500
SK-MEL-1 (melanoma, suspension, top dose 5.12 µM) | 0.954 | > 5120
SK-MEL-2 (melanoma, adherent, top dose 5.12 µM) | 0.699 | 1190
SK-MEL-3 (melanoma, adherent, top dose 5.12 µM) | 0.793 | 2770
SK-MEL-5 (melanoma, adherent, top dose 5.12 µM) | 0.82 | 3810
SK-MEL-24 (melanoma, adherent, top dose 5.12 µM) | 0.817 | 3660
SK-MEL-28 (melanoma, adherent, top dose 5.12 µM) | 0.849 | 3740
SK-MEL-30 (melanoma, adherent, top dose 5.12 µM) | 0.815 | 3010
SK-MES-1 (lung squamous cell carcinoma, adherent, top dose 5.12 µM) | 0.681 | 1080
SK-MG-1 (glioma, adherent, top dose 5.12 µM) | 0.987 | > 5120
SK-MM-2 (myeloma, suspension, top dose 5.12 µM) | 0.46 | 247
SK-N-AS (neuroblastoma, adherent, top dose 5.12 µM) | 0.646 | 870
SK-N-DZ (neuroblastoma, adherent, top dose 5.12 µM) | 0.814 | 2750
SK-N-FI (neuroblastoma, adherent, top dose 5.12 µM) | 0.859 | 4220
SK-N-SH (neuroblastoma, adherent, top dose 5.12 µM) | 0.818 | 2840

IC50 is the fitted dose that halves viability relative to control wells, and lower means more sensitive; a fit beyond the top or the lowest dose is shown as a bound at that dose. AUC sums up the same curve from the lowest dose to the 256-fold higher top dose; values near 1 show little effect.
